# Source: PubChem BioAssay AID686970 (National Center for Advancing Translational Sciences (NCATS), 2013)
# Screen size: about 360,000 compounds; about 6,000 (1.7%) were called active. Inconclusive results, whose numbers are uncertain, are shown with a selection of clear calls. Calls come from the whole dose curve; as a rule, active = well fitted cell-killing curve with a large enough effect; inconclusive = small, poorly fitted or top-dose-only effect, or effect the other way; inactive = flat fitted curve, though single readings scatter. Potencies of inconclusive entries are left out as doubtful fits.
# Assay: qHTS for induction of synthetic lethality in tumor cells producing 2HG: qHTS for the HT-1080-NT fibrosarcoma cell line;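 note: NT is the 2HG producing partner of a matched IDH1 knockdown line; nearly all actives have a fitted effect of over 55% in size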;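 for activity, negative = less viability: 0% = DMSO-treated cells and -100% = media-only wells without cells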
# Conditions: HT-1080-NT fibrosarcoma viability, CellTiter-Glo ATP luminescence, 48 h; activity, negative = less viability: at 46.1 µM (top of the series) unless noted
# In short: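 Luminescent CellTiter-Glo readout after 48 hours of compound exposure at 37 degrees C defined viability of HT-1080-NT cells. Activity was normalized to DMSO wells and cell-free media wells; concentration-response curves were fitted and assigned curve classes.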
# Potency is the fitted concentration of half-maximal effect; tags give direction and shape of the fitted curve.
Structure (SMILES),Potency,"activity, negative = less viability"
CC(C)c1c(C(=O)N/N=C/c2ccc(C(F)(F)F)cc2)nnn1-c1nonc1N,"inconclusive [cytotoxic, single point]",
Nc1ccn([C@@H]2O[C@H](CO)[C@@H](O)C2O)c(=O)n1 (stereo partly drawn),,inconclusive: -7.62% [cytotoxic]
CCn1c(=S)sc2c(=O)[nH]c(SCC(=O)Nc3cc(OC)ccc3OC)nc21,,inactive: -19.4%
COc1cc2c(OC(C)=O)c3c(c(-c4ccc5c(c4)OCO5)c2cc1OC)C(=O)OC3,active: 2.91 µM,
CCOc1cc(/C=C2/C(=N)N3C(=NC2=O)SN=C3S(C)(=O)=O)ccc1OS(=O)(=O)c1ccccc1,,inactive: -0.499%
Cc1ccc(N2C(=O)C(Cc3ccccc3)NC2=S)cc1 (stereo not drawn),"inconclusive [cytotoxic, single point]",
COc1ccc(/C=C/c2ccccc2)cc1[C@H]1[C@@H]2C=CCC[C@@]2(C)C(=O)N1Cc1ccccc1,"inconclusive [cytotoxic, single point]",
O=S(=O)(c1ccc(NC(=S)N2CCN(c3ccc(O)cc3)CC2)cc1)N1CCOCC1,"inconclusive [cytotoxic, full curve]",
COc1ccccc1Nc1nc(-c2cccc(N3C(=O)c4ccccc4C3=O)c2)cs1,,inconclusive: 42.8%
Cc1cc(C(=O)C(C)OC(=O)C2=NNC(=O)CC2)c(C)n1-c1ccc(OC(F)F)cc1 (stereo not drawn),,inactive: -0.257%
CC(C)Cn1c(SCC(N)=O)nnc1-c1cccc(S(=O)(=O)N2CCOCC2)c1,,inactive: 3.15%
COc1cccc(/C=N/Nc2cc(C)nc(-c3ccccc3O)n2)c1O,active: 8.2 µM,
CCc1cc2c(NCC(=O)O)ncnc2s1,,inactive: 2.97%
C[C@@H]1CCCCO[C@H](CN(C)Cc2ccc(C(F)(F)F)cc2)[C@H](C)CN([C@@H](C)CO)C(=O)c2cc(NC(=O)Cc3ccccc3)ccc2O1,active: 16.4 µM,
Cc1cc(C)n(-c2ccc(C(=O)Nc3cccc([N+](=O)[O-])c3)cc2)n1,"inconclusive [cytotoxic, single point]",
CS(=O)(=O)c1ccc(Nc2nc(C(N)Cc3ccc(F)cc3)cs2)cc1 (stereo not drawn),,inactive: -29.9%
Cc1cccc(OCCCC(=O)NNC(=O)CCN2CCN(c3ccccc3)CC2)c1,,inactive: 3.88%
O=C(Nc1ccccc1N1CCCCC1)c1ccc(OC(F)F)cc1,,inactive: -0.817%
COC(=O)c1ccc(/C=N/n2c(C)nc3ccccc3c2=O)cc1,,inactive: 0.443%
CCn1cc(CNCc2cn(C)nc2-c2ccc(C3CCCCC3)cc2)cn1,active: 14.6 µM,
COc1ccccc1NC(=O)c1oc2ccccc2c1NC(=O)c1cc(OC)c(OC)c(OC)c1,"inconclusive [cytotoxic, full curve]",
Cn1cc(C(=O)NCCc2ccccc2)c(=O)c2cc(S(=O)(=O)N3CCOCC3)ccc21,,inactive: -0.387%
Cn1nc(N)c2ncc(C(Cl)(Cl)Cl)nc21,,inactive: -11.6%
Cc1ccccc1Oc1ncnc(N)c1[N+](=O)[O-],,inactive: -1.27%
Oc1ccc(COCc2ccccc2)c2cccnc12,"inconclusive [cytotoxic, partial curve]",
COc1cc(NC(=O)Cc2ccc(S(=O)(=O)N3CCOCC3)s2)c(OC)cc1Cl,,inactive: -4.01%

Structure (SMILES),Potency,"activity, negative = less viability"
COc1ccc(Oc2c(C)oc3cc(OC(=O)N4CCOCC4)ccc3c2=O)cc1,,inactive: -3.44%
COc1ccccc1/C=N/Nc1nc(C)c(C(C)=O)s1,"inconclusive [rising, partial curve]",
CCc1nc2c(OCc3cccc(Cl)c3)cccn2c1N(C)C(=O)CC(C)C,"inconclusive [cytotoxic, single point]",
CN1CCN(C(=S)NC(=O)/C=C/c2ccccc2)CC1,"inconclusive [cytotoxic, single point]",
Cc1ccc(NC(=O)c2ccc(Cl)c(S(=O)(=O)N3CCCCCC3)c2)nc1,"inconclusive [cytotoxic, partial curve]",
O=C1C(=O)N(CCN2CCCCC2)c2ccccc21,,inactive: 11.1%
O=S(=O)(/C(=C\c1ccc(C(F)(F)F)cc1)c1nc2ccccc2[nH]1)c1ccccc1,active: 1.84 µM,
Oc1c(Br)cc(Br)cc1CNc1nccs1,,inactive: -13.5%
O=C(c1cccc([N+](=O)[O-])c1)N1CCN(c2cccc(Cl)c2)CC1,"inconclusive [cytotoxic, partial curve]",
NC1=NC(=O)/C(=C\c2ccc(-c3ccccc3[N+](=O)[O-])o2)S1,active: 20 µM,
Cc1nc2c(OCc3ccc(Cl)cc3Cl)cccn2c1N(C)CC1CC1,active: 13 µM,
N#CC1=C(N)Oc2c(ccc3cccnc23)C1c1cccnc1 (stereo not drawn),active: 7.31 µM,
Cc1ccc(NNC(=O)C(=O)N2CCCCC2)cc1,"inconclusive [cytotoxic, full curve]",
COc1ccc(C(C(=O)NC2CCCCC2)N(Cc2cccs2)C(=O)Cc2c[nH]c3ccccc23)cc1 (stereo not drawn),"inconclusive [cytotoxic, single point]",
COCCC(=O)N1CCc2ccc(NC(=O)c3ccc(C(F)(F)F)cc3)cc2C1,"inconclusive [cytotoxic, single point]",
c1ccc2nc(-c3nc4ccccc4[nH]3)ccc2c1,active: 25.9 µM,
CN=C1SC(CC(=O)Nc2cccc(C(F)(F)F)c2)C(=O)N1C (stereo not drawn),,inactive: -11.9%
Cc1cc(-c2n[nH]c(=S)n2/N=C/C(Br)=C/c2ccccc2)n[nH]1,,inconclusive: -3.09% [cytotoxic]
CCCCC(=O)NC(c1ccc(OC)c(OC)c1)c1ccc2cccnc2c1O (stereo not drawn),active: 14.6 µM,
COc1ccccc1Cc1c(-c2ccc(OC)c(OC)c2)nc2c3ccccc3ccn12,"inconclusive [cytotoxic, single point]",
COc1ccc(/C=C2\CCc3ccccc3C2=O)cc1O,active: 2.31 µM,
COc1ccc(-c2csc(N(CCCN(C)C)C(=O)c3ccc(Br)cc3)n2)cc1,active: 20.6 µM,
COc1ccc(N2CCN(C(=O)CCNC(=O)c3ccccc3)CC2)cc1,,inactive: 12.3%
O=C1c2ccccc2C(=O)C12OC2c1ccc(Cl)cc1Cl (stereo not drawn),active: 20.6 µM,
Cc1ccc(/C=C/c2ccc(=O)n(Cc3ccccc3Cl)n2)cc1,"inconclusive [cytotoxic, single point]",
O=C(Nc1ccc(Cl)cn1)c1cccc(OCc2ccccc2)c1,"inconclusive [cytotoxic, single point]",

Structure (SMILES),Potency,"activity, negative = less viability"
CCN(CC)C(=O)c1ccc2nc([C@H]3C[C@H](O)[C@@H](CO)O3)[nH]c2c1,,inactive: -1.83%
CCOC(=O)c1ccc(NC(=O)c2cccc(S(=O)(=O)N3c4ccccc4CC3C)c2)s1 (stereo not drawn),"inconclusive [cytotoxic, partial curve]",
Oc1ccc(-c2nc3ccccn3c2NCc2ccco2)cc1,,inactive: -10.2%
CCCNC(=O)C1(C)CCN(C(=O)c2cccnc2Oc2ccccc2)C1 (stereo not drawn),,inactive: 3.2%
Cn1c(=O)c2cc(NC(=O)NCCc3cccs3)ccc2n1Cc1ccccc1,,inactive: -20.1%
COc1ccc(CCNC(=O)CS(=O)(=O)c2cn(CC(=O)N3CCCC3)c3ccccc23)cc1OC,,inactive: 0.628%
Cc1ccccc1C(=O)Nc1nc2n(n1)C(c1ccccc1)CC(=O)N2 (stereo not drawn),,inactive: 0.129%
CC(C)Nc1cc(C(F)(F)F)nc(-c2ccccn2)n1,,inactive: 2.85%
COC(=O)c1ccccc1COc1cccn2c(N(C)CC3CC3)c(C)nc12,"inconclusive [cytotoxic, single point]",
OC[C@@H]1CN(Cc2ccc(Cl)cc2)C[C@H](n2cnc3c(NC4CC4)ncnc32)O1,"inconclusive [rising, single point]",
Cc1cc(N2CCCCC2)nc2ccc(NC(=O)c3ccc(Br)o3)cc12,"inconclusive [cytotoxic, single point]",
CCOc1cccc(-c2cc(C(=O)N/N=C/c3ccc(OC)c(CN4CCOCC4)c3)c3ccccc3n2)c1,"inconclusive [cytotoxic, single point]",
COc1ccc(NC(=S)NN(C)C(=S)Nc2ccc(OC)cc2)cc1,active: 1.46 µM,
COc1ccc(-n2c(C)cc(C(=O)CCl)c2C)cc1,"inconclusive [cytotoxic, full curve]",
NC(Cc1ccc(C(F)(F)F)cc1)c1csc(Nc2ccc(S(N)(=O)=O)cc2)n1 (stereo not drawn),active: 20.6 µM,
O=C1NC(Cc2ccc(O)cc2)c2nc3ccc(F)cc3c(=O)n2-c2cc3ccccc3cc21 (stereo not drawn),active: 11.6 µM,
Cc1ccn2c(Nc3ccccc3C)c(-c3ccccn3)nc2c1,active: 14.6 µM,
Cc1ccccc1NC(=S)/C(=C(\[O-])c1ccc(C)c([N+](=O)[O-])c1)[n+]1ccccc1,,inconclusive: 9.34%
Cc1cccc(NC(=O)c2cccc(S(=O)(=O)N(C)c3ccccc3)c2)n1,,inactive: -13.1%
Cc1ccc(-c2nc(C(=O)NCCCN(C)C)cc3c2[nH]c2ccccc23)cc1,"inconclusive [cytotoxic, single point]",
Cn1c(=O)c2c(nc(CN3CCN(CCO)CC3)n2Cc2cccc3ccccc23)n(C)c1=O,"inconclusive [cytotoxic, single point]",
CC(=O)c1ccc(OCc2ccc(Oc3c(Cl)cccc3[N+](=O)[O-])cc2)cc1,,inactive: -1.64%
COc1ccccc1NC(=O)C1=C(C)Nc2nc3ccccc3n2C1c1cccs1 (stereo not drawn),active: 7.31 µM,
CCc1ccc(CCC(=O)Nc2sc3c(c2C#N)CCCC3)o1,active: 3.98 µM,
OCCCc1nc2ccccc2n1CCCCOc1ccccc1,,inactive: -16.6%
COc1ccccc1NC(=O)c1c(Nc2ccccc2F)sc(C(=O)Nc2cccc(Cl)c2)c1N,active: 14.6 µM,
